# Source: the supplement of paper PMC10369915
# The other results are listed elsewhere or left out. No stated cut-off is given here; in the data, active = 3.2 or more and inactive = the rest. Most of these values are background signal.
# Target: SHP2 C-SH2 domain E139D
# Test: enrichment score (SH2-bound / input frequency) (ratio); bacterial display of known human phosphotyrosine sites (pTyr-Var adds point mutants) read by sequencing; higher = stronger binding; tyrosines were phosphorylated by kinases first
# Details: peptide library: Human pTyr
# 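Further: displayed peptides selected on beads carrying the immobilized SH2 domain, with library peptides lacking any tyrosine serving as negative controls.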
row,Binder,enrichment score
1,ANADGKDYNPLLARQ [MARE3_HUMAN_124_YA],inactive: 0.701
2,SGVAEPVYKTSQKKE [MARF1_HUMAN_699],inactive: 0.723
3,MDSASGPYGDMRLET [ANDR_HUMAN_535_YA],inactive: 0.513
4,SLNPVLDYDHGSRSQ [MATR3_HUMAN_202],inactive: 0.72
5,DGDSYDPYDFSDTEE [MCM3_HUMAN_708],inactive: 1.4
6,DGDSADPYDFSDTEE [MCM3_HUMAN_708_YA],inactive: 0.989
7,STSSSIIYSSQEDVK [MDM2_HUMAN_405],inactive: 0.62
8,DHVLPIDYAFPPQKT [ANDR_HUMAN_552_YA],inactive: 0.564
9,DESQGEIYRSIEHLD [MEMO1_HUMAN_210],inactive: 0.882
10,FGLSKKIYSGDYYRQ [MERTK_HUMAN_749],inactive: 1.34
11,FGLSKKIYSGDAARQ [MERTK_HUMAN_749_YA],inactive: 0.73
12,KKIASGDYARQGRIA [MERTK_HUMAN_753_YA],inactive: 0.95
13,KIYSGDYYRQGRIAK [MERTK_HUMAN_754],inactive: 1.92
14,KIASGDAYRQGRIAK [MERTK_HUMAN_754_YA],inactive: 1.44
15,VSNESVDYRATFPED [MET_HUMAN_1003],inactive: 0.705
16,FGLARDMYDKEYYSV [MET_HUMAN_1230],inactive: 1.02
17,SGKVKPIYFHTQGGG [ANDR_HUMAN_916],inactive: 2.59
18,DMYDKEYYSVHNKTG [MET_HUMAN_1235],inactive: 0.702

# Target: SHP2 C-SH2 domain wild-type
# Test: as above
# Details: peptide library: Human pTyr
row,Binder,enrichment score
1,ANADGKDYNPLLARQ [MARE3_HUMAN_124_YA],inactive: 0.641
2,SGVAEPVYKTSQKKE [MARF1_HUMAN_699],inactive: 0.855
3,MDSASGPYGDMRLET [ANDR_HUMAN_535_YA],inactive: 0.507
4,SLNPVLDYDHGSRSQ [MATR3_HUMAN_202],inactive: 0.51
5,DGDSYDPYDFSDTEE [MCM3_HUMAN_708],inactive: 1.16
6,DGDSADPYDFSDTEE [MCM3_HUMAN_708_YA],inactive: 0.924
7,STSSSIIYSSQEDVK [MDM2_HUMAN_405],inactive: 0.616
8,DHVLPIDYAFPPQKT [ANDR_HUMAN_552_YA],inactive: 0.427
9,DESQGEIYRSIEHLD [MEMO1_HUMAN_210],inactive: 0.722
10,FGLSKKIYSGDYYRQ [MERTK_HUMAN_749],inactive: 1.27
11,FGLSKKIYSGDAARQ [MERTK_HUMAN_749_YA],inactive: 0.641
12,KKIASGDYARQGRIA [MERTK_HUMAN_753_YA],inactive: 0.724
13,KIYSGDYYRQGRIAK [MERTK_HUMAN_754],inactive: 1.45
14,KIASGDAYRQGRIAK [MERTK_HUMAN_754_YA],inactive: 1.46
15,VSNESVDYRATFPED [MET_HUMAN_1003],inactive: 0.621
16,FGLARDMYDKEYYSV [MET_HUMAN_1230],inactive: 0.891
17,SGKVKPIYFHTQGGG [ANDR_HUMAN_916],inactive: 3
18,DMYDKEYYSVHNKTG [MET_HUMAN_1235],inactive: 0.858

# Target: SHP2 N-SH2 domain L43F
# Test: as above
# Details: peptide library: Human pTyr
row,Binder,enrichment score
1,ANADGKDYNPLLARQ [MARE3_HUMAN_124_YA],inactive: 0.807
2,SGVAEPVYKTSQKKE [MARF1_HUMAN_699],inactive: 0.896
3,MDSASGPYGDMRLET [ANDR_HUMAN_535_YA],inactive: 0.629
4,SLNPVLDYDHGSRSQ [MATR3_HUMAN_202],inactive: 0.613
5,DGDSYDPYDFSDTEE [MCM3_HUMAN_708],inactive: 1.1
6,DGDSADPYDFSDTEE [MCM3_HUMAN_708_YA],inactive: 1.25
7,STSSSIIYSSQEDVK [MDM2_HUMAN_405],inactive: 0.638
8,DHVLPIDYAFPPQKT [ANDR_HUMAN_552_YA],inactive: 0.539
9,DESQGEIYRSIEHLD [MEMO1_HUMAN_210],inactive: 0.882
10,FGLSKKIYSGDYYRQ [MERTK_HUMAN_749],inactive: 1.03
11,FGLSKKIYSGDAARQ [MERTK_HUMAN_749_YA],inactive: 0.952
12,KKIASGDYARQGRIA [MERTK_HUMAN_753_YA],inactive: 0.801
13,KIYSGDYYRQGRIAK [MERTK_HUMAN_754],inactive: 1.28
14,KIASGDAYRQGRIAK [MERTK_HUMAN_754_YA],inactive: 1.03
15,VSNESVDYRATFPED [MET_HUMAN_1003],inactive: 0.827
16,FGLARDMYDKEYYSV [MET_HUMAN_1230],inactive: 0.772
17,SGKVKPIYFHTQGGG [ANDR_HUMAN_916],inactive: 2.49
18,DMYDKEYYSVHNKTG [MET_HUMAN_1235],inactive: 0.988

# Target: SHP2 N-SH2 domain T42A
# Test: as above
# Details: peptide library: Human pTyr
row,Binder,enrichment score
1,ANADGKDYNPLLARQ [MARE3_HUMAN_124_YA],inactive: 0.699
2,SGVAEPVYKTSQKKE [MARF1_HUMAN_699],inactive: 0.686
3,MDSASGPYGDMRLET [ANDR_HUMAN_535_YA],inactive: 0.466
4,SLNPVLDYDHGSRSQ [MATR3_HUMAN_202],inactive: 0.538
5,DGDSYDPYDFSDTEE [MCM3_HUMAN_708],inactive: 1.15
6,DGDSADPYDFSDTEE [MCM3_HUMAN_708_YA],inactive: 1.2
7,STSSSIIYSSQEDVK [MDM2_HUMAN_405],inactive: 0.459
8,DHVLPIDYAFPPQKT [ANDR_HUMAN_552_YA],inactive: 0.566
9,DESQGEIYRSIEHLD [MEMO1_HUMAN_210],inactive: 0.749
10,FGLSKKIYSGDYYRQ [MERTK_HUMAN_749],inactive: 1.02
11,FGLSKKIYSGDAARQ [MERTK_HUMAN_749_YA],inactive: 1.01
12,KKIASGDYARQGRIA [MERTK_HUMAN_753_YA],inactive: 0.888
13,KIYSGDYYRQGRIAK [MERTK_HUMAN_754],inactive: 1.13
14,KIASGDAYRQGRIAK [MERTK_HUMAN_754_YA],inactive: 1.05
15,VSNESVDYRATFPED [MET_HUMAN_1003],inactive: 0.673
16,FGLARDMYDKEYYSV [MET_HUMAN_1230],inactive: 0.794
17,SGKVKPIYFHTQGGG [ANDR_HUMAN_916],inactive: 2.38
18,DMYDKEYYSVHNKTG [MET_HUMAN_1235],inactive: 0.858

# Target: SHP2 N-SH2 domain T52S
# Test: as above
# Details: peptide library: Human pTyr
row,Binder,enrichment score
1,ANADGKDYNPLLARQ [MARE3_HUMAN_124_YA],inactive: 0.521
2,SGVAEPVYKTSQKKE [MARF1_HUMAN_699],inactive: 1.02
3,MDSASGPYGDMRLET [ANDR_HUMAN_535_YA],inactive: 0.481
4,SLNPVLDYDHGSRSQ [MATR3_HUMAN_202],inactive: 0.673
5,DGDSYDPYDFSDTEE [MCM3_HUMAN_708],inactive: 1.27
6,DGDSADPYDFSDTEE [MCM3_HUMAN_708_YA],inactive: 1.49
7,STSSSIIYSSQEDVK [MDM2_HUMAN_405],inactive: 0.663
8,DHVLPIDYAFPPQKT [ANDR_HUMAN_552_YA],inactive: 0.615
9,DESQGEIYRSIEHLD [MEMO1_HUMAN_210],inactive: 0.854
10,FGLSKKIYSGDYYRQ [MERTK_HUMAN_749],inactive: 1.59
11,FGLSKKIYSGDAARQ [MERTK_HUMAN_749_YA],inactive: 0.994
12,KKIASGDYARQGRIA [MERTK_HUMAN_753_YA],inactive: 0.974
13,KIYSGDYYRQGRIAK [MERTK_HUMAN_754],inactive: 1.41
14,KIASGDAYRQGRIAK [MERTK_HUMAN_754_YA],inactive: 1.07
15,VSNESVDYRATFPED [MET_HUMAN_1003],inactive: 0.722
16,FGLARDMYDKEYYSV [MET_HUMAN_1230],inactive: 0.975
17,SGKVKPIYFHTQGGG [ANDR_HUMAN_916],inactive: 3.01
18,DMYDKEYYSVHNKTG [MET_HUMAN_1235],inactive: 0.867

# Target: SHP2 N-SH2 domain wild-type
# Test: as above
# Details: peptide library: Human pTyr
row,Binder,enrichment score
1,ANADGKDYNPLLARQ [MARE3_HUMAN_124_YA],inactive: 0.565
2,SGVAEPVYKTSQKKE [MARF1_HUMAN_699],inactive: 1
3,MDSASGPYGDMRLET [ANDR_HUMAN_535_YA],inactive: 0.507
4,SLNPVLDYDHGSRSQ [MATR3_HUMAN_202],inactive: 0.647
5,DGDSYDPYDFSDTEE [MCM3_HUMAN_708],inactive: 1.77
6,DGDSADPYDFSDTEE [MCM3_HUMAN_708_YA],inactive: 1.6
7,STSSSIIYSSQEDVK [MDM2_HUMAN_405],inactive: 0.558
8,DHVLPIDYAFPPQKT [ANDR_HUMAN_552_YA],inactive: 0.589
9,DESQGEIYRSIEHLD [MEMO1_HUMAN_210],inactive: 0.896
10,FGLSKKIYSGDYYRQ [MERTK_HUMAN_749],inactive: 1.08
11,FGLSKKIYSGDAARQ [MERTK_HUMAN_749_YA],inactive: 0.925
12,KKIASGDYARQGRIA [MERTK_HUMAN_753_YA],inactive: 1.25
13,KIYSGDYYRQGRIAK [MERTK_HUMAN_754],inactive: 1.24
14,KIASGDAYRQGRIAK [MERTK_HUMAN_754_YA],inactive: 1.38
15,VSNESVDYRATFPED [MET_HUMAN_1003],inactive: 0.858
16,FGLARDMYDKEYYSV [MET_HUMAN_1230],inactive: 1.14
17,SGKVKPIYFHTQGGG [ANDR_HUMAN_916],active: 3.88
18,DMYDKEYYSVHNKTG [MET_HUMAN_1235],inactive: 0.785
